These results are taken from the supplement of paper PMC11417369.

± gives the standard deviation of the averaged measurements. The list shows a part of the results.

The subject of the assay is PfAP2-G AP2 domain (GST-tagged). As to the kind of experiment: gcPBM binding intensity (ln(normalized median fluorescence intensity)); higher = stronger DNA binding. A digest of the protocol: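 Binding of GST-tagged P. falciparum DNA-binding domains, expressed in E. coli and used at about 25 μg on average, was carried out for 1 h in 1× PBS containing 1% milk, 0.2 mg/ml BSA, 0.5% salmon testes DNA and 0.03% Triton X-100. The target was an Agilent 4 × 180k array of primer-extended double-stranded 36-bp intergenic genomic probes plus negative controls, read with Alexa488 anti-GST antibody at 488 nm. Binding intensity is the highest Masliner-normalised natural-log median intensity across replicate spots of either probe orientation.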
As for “GTAAACAATTATGAACGTACATAAAATAAATGAACA [XGTACX_site7159]”, the “gcPBM binding intensity (ln)” value came to 11.3 ± 0.85.

With “TAATATTATATAAATTGTACTATTTTTTCCTTATTC [XGTACX_site5314]”, the “gcPBM binding intensity (ln)” value is 11.2 ± 0.72.

On to “AGTATACACAGACACACACACACATATATATATATA [CACACA_site8510]”, for which the “gcPBM binding intensity (ln)” value worked out at 10.2 ± 0.31.

In the case of “TTTTTATGGACTATGGTGCATTATATATAAATGAAA [GTGCAC_site9557]”, the “gcPBM binding intensity (ln)” value was 10.3 ± 0.38.

Take “CAAAAATATTATTATAGTACATAAATAATATATTTT [XGTACX_site6902]”: the “gcPBM binding intensity (ln)” value amounted to 10.9 ± 0.64.

Regarding “TAAAAATAGGAGTGTGTGCACATAAATTATATACTA [GTGCAC_site9405]”, the “gcPBM binding intensity (ln)” value was determined as 10.5 ± 0.31.

For the sequence “TTACTTAATAGACACACACACAAAAAAAAAAAAAAA [CACACA_site6572]”, the “gcPBM binding intensity (ln)” value is 10 ± 0.65.

On to “CACATACATAAATACACACACAAAATAATAAAATAA [CACACA_site5304]”, for which the “gcPBM binding intensity (ln)” value is 10.2 ± 0.18.

Consider “ATATCAAATTCTGAAACACACAAAATTACACCTCTA [CACACA_site169]”, for which the “gcPBM binding intensity (ln)” value stood at 10.03 ± 0.071.

With “TTTTCGATATGCTTTTTTTTTCTACTGTCTTTTTAA [TGCATGCA_negctrl_site54]”, the “gcPBM binding intensity (ln)” value was found to be 9.89 ± 0.13.

Regarding “TTTTCATTTTTCTTTACACACATATATATATATATA [CACACA_site2236]”, the “gcPBM binding intensity (ln)” value was 10.2 ± 0.13.

Regarding “TATATATATATTTTTTGTACATATTATATAATATAC [XGTACX_site5187]”, the “gcPBM binding intensity (ln)” value turned out to be 11 ± 0.54.

Turning to “AAAAAAAAAAAAAAAAAAAAACACCCAAAAAAATAT [XGTACX_negctrl_site210]”, the “gcPBM binding intensity (ln)” value stood at 10.8 ± 0.33.

As to “GAAAGACAAATTGTGACACACACAAAAAAAAAAAAA [CACACA_site9241]”, the “gcPBM binding intensity (ln)” value was 10.4 ± 0.67.

“TCAAATAATTTGTTGACACACACACCCACATACATA [CACACA_site8717]”: the “gcPBM binding intensity (ln)” value turned out to be 10.6 ± 0.45.

For “ATATTTTTTACTATTACACACAAGGGATTATTATTT [CACACA_site3915]”, the “gcPBM binding intensity (ln)” value is 10.02 ± 0.078.

Take “ACCTTATAAAAAAAAAGTACATATATAAATAATAAA [XGTACX_site4338]”: the “gcPBM binding intensity (ln)” value was 11.5 ± 1.

On to “AAACAATAAAAGATTACACACATATATAGCATATAT [CACACA_site1698]”, for which the “gcPBM binding intensity (ln)” value stood at 9.8 ± 0.099.

Regarding “TATACATAATATATATGTACATATATTCTTTATTTT [XGTACX_site4565]”, the “gcPBM binding intensity (ln)” value came out at 11.1 ± 0.64.

“TGGAGGATAGTTCACAGTACCCAGAAACTCTACGGA [XGTACX_site2560]”: the “gcPBM binding intensity (ln)” value worked out at 10.8 ± 0.57.

Consider “AACCATAAATAATTATGTACTAAAAAAAATATATAT [XGTACX_site3415]”, for which the “gcPBM binding intensity (ln)” value worked out at 11.2 ± 0.73.

With “TTTTTGATGAAATATTATTTTCCTGACTTGGATTAA [CACACA_negctrl_site148]”, the “gcPBM binding intensity (ln)” value came to 9.7 ± 0.028.

Take “GAAATGGAAAAATATACATGCGCATATAAATTAATA [TGCATGCA_site834]”: the “gcPBM binding intensity (ln)” value was found to be 9.72 ± 0.099.

For the sequence “ATAATATATTTATGTTGTACAAGGAAAATTTTGAAA [XGTACX_site3472]”, the “gcPBM binding intensity (ln)” value worked out at 11.3 ± 0.74.

With “TATAATGATATAACAACACACATGTATGTATTATTA [CACACA_site230]”, the “gcPBM binding intensity (ln)” value worked out at 9.845 ± 0.049.

As for “ATCATATGTATGCATACACACAAAAAATTATATATA [CACACA_site398]”, the “gcPBM binding intensity (ln)” value is 10 ± 0.13.

Consider “TTATTTATGATATATACACACTAACATTATTTATCC [CACACA_site6720]”, for which the “gcPBM binding intensity (ln)” value was determined as 9.895 ± 0.064.

Take “TCTTATATATGCTTAAATATATTATATTTATTTGAA [CACACA_negctrl_site1757]”: the “gcPBM binding intensity (ln)” value is 9.56 ± 0.11.

On to “TTTTTCTTCTGCATTATGCACACTATAATTCGTTAA [CACACA_site2837]”, for which the “gcPBM binding intensity (ln)” value came out at 10.1 ± 0.11.

For the sequence “TATAGATACCTATACACACACACACGGACATATATA [CACACA_site7585]”, the “gcPBM binding intensity (ln)” value stood at 10.9 ± 0.49.

Regarding “ATATAAAACAACGGGTGTACAAAAAAATAAATAATA [XGTACX_site4094]”, the “gcPBM binding intensity (ln)” value came to 11.3 ± 0.76.

Take “AAAGAAATGAAATATACACACATACCTATATACATA [CACACA_site7817]”: the “gcPBM binding intensity (ln)” value is 9.88 ± 0.16.

Turning to “TTTTTAATATATAAAGATAATAATAAATAAAATTCA [CACACA_negctrl_site657]”, the “gcPBM binding intensity (ln)” value was 9.46 ± 0.12.

As to “TATATATTTATATATGCATGTACATTTTTATTTATT [TGCATGCA_site1048]”, the “gcPBM binding intensity (ln)” value came to 11 ± 0.48.

In the case of “TTAAAATCTTGAAAAGTGCATTATCATTTTGTAACG [GTGCAC_site9447]”, the “gcPBM binding intensity (ln)” value was found to be 9.9 ± 0.11.

“TATAATGATGATGATAGTACGTATGAGTTCAAAAAA [XGTACX_site3656]”: the “gcPBM binding intensity (ln)” value turned out to be 11.1 ± 0.64.

Take “GGGTATAATAAAAGCACACACAAAGATATAAATATA [CACACA_site3308]”: the “gcPBM binding intensity (ln)” value was 10.1 ± 0.21.

For “AAAAAAAAAAAACACGCATGTACATAAAAATAATCA [TGCATGCA_site142]”, the “gcPBM binding intensity (ln)” value is 11.2 ± 0.49.

Turning to “TTTTTTTTTTTTAATTAACACACATAAATATATATA [CACACA_site9077]”, the “gcPBM binding intensity (ln)” value stood at 9.89 ± 0.29.

Turning to “CTGAATGTATATATTTGTACATATATATATATATAT [XGTACX_site5557]”, the “gcPBM binding intensity (ln)” value stood at 11.1 ± 0.97.

For the sequence “TGTGTATATGTGCAAAGTACAAAAAAGAAATTATTT [XGTACX_site7569]”, the “gcPBM binding intensity (ln)” value came to 10.8 ± 0.51.

Turning to “AATATATGGTTCCTTGATATTAAATTCAATTTAATG [CACACA_negctrl_site71]”, the “gcPBM binding intensity (ln)” value amounted to 10.3 ± 0.2.

In the case of “TAAATCTATATCATCACACACACATACATAAATATA [CACACA_site6228]”, the “gcPBM binding intensity (ln)” value worked out at 10.1 ± 0.15.

On to “TAGTATTGTAAAAAAAAAAAAGAAAAAAAAAAAAAA [CACACA_negctrl_site977]”, for which the “gcPBM binding intensity (ln)” value amounted to 9.68 ± 0.15.

Regarding “GTGGAAAAAAATAATTGTACACAATAATAAATATAT [XGTACX_site2414]”, the “gcPBM binding intensity (ln)” value came to 11.3 ± 0.69.

With “TGGATGTTAATATAGTGTACATTTATAAGTCAGTAT [XGTACX_site2949]”, the “gcPBM binding intensity (ln)” value was found to be 11.1 ± 0.62.

With “CACTAAACATATACACGTACATGCAACGGATTTTTT [XGTACX_site461]”, the “gcPBM binding intensity (ln)” value was 11.3 ± 0.76.

As to “ACCTTTATTGTATGAACACACATAAGCTGATACATC [CACACA_site4028]”, the “gcPBM binding intensity (ln)” value worked out at 10.2 ± 0.11.

Consider “GAAAAAAAATCCAAGATGCACTATTATTACAAAAAT [GTGCAC_site9516]”, for which the “gcPBM binding intensity (ln)” value is 10.02 ± 0.014.

With “GTCAAAAGTTTTTAAGGTACACTTATTTTATTATAA [XGTACX_site7004]”, the “gcPBM binding intensity (ln)” value was 11.4 ± 0.96.

Consider “ATGTAATATATGCGGAAATATATTCACAAGACGTCA [CACACA_negctrl_site373]”, for which the “gcPBM binding intensity (ln)” value worked out at 9.94.

With “TATAAAAAAAATTGCACACATATTATACAGGACGAC [CACACA_site701]”, the “gcPBM binding intensity (ln)” value is 10.5 ± 0.2.

For the sequence “TGTATATATCAATGTACACACATGCGTATGTTCGTT [CACACA_site7654]”, the “gcPBM binding intensity (ln)” value was 11.1 ± 0.67.

For “AAAATATATATAACTTGTACATATACATACGTATAT [XGTACX_site4570]”, the “gcPBM binding intensity (ln)” value is 11 ± 0.67.

For “ATACATAATAACTCCTGTACTTAAAAATGTATATAT [XGTACX_site1071]”, the “gcPBM binding intensity (ln)” value is 11.3 ± 0.83.

On to “TAAAAAAAAACATGTGCACACGTTTTATCTACATAA [CACACA_site2336]”, for which the “gcPBM binding intensity (ln)” value worked out at 10.3 ± 0.25.
